# Publication PMC7819943, “Rice protein-binding microarrays: a tool to detect cis-acting elements near promoter regions in rice”
# Some of the results follow.
# Molecular target: T1, OsWOX13 (Oryza sativa, UniProt Q5QMM3 1-267)
# T1 sequence: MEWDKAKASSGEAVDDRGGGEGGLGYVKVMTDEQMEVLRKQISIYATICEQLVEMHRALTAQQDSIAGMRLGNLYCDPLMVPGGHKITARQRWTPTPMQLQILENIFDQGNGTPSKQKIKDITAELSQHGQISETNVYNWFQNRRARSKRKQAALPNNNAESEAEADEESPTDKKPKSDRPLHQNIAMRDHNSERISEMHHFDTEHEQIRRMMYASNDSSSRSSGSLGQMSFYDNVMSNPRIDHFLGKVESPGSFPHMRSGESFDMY
# Test: protein-binding microarray (RPBM); PBS, 2% BSA, 51.3 ng/ul salmon testes DNA, 50 uM zinc acetate, 200 nM TF, 25 C, 1 h; high values mean tight binding
# Details: protein: recombinant; tags: N-terminal polyhistidine and DsRed monomer fusion (pET32a); label: CyDye5-dUTP incorporated in the synthesized complementary strand; 3' TTTTT single-stranded linker to array surface; dsDNA, one strand shown
# Method in brief: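 Ni–NTA purification followed expression in E. coli BL21-CodonPlus of transcription factors fused N-terminally to a polyhistidine tag and DsRed. At 200 nM in PBS with 2% BSA, salmon testes DNA and 50 µM zinc acetate, the protein was incubated for 1 h at 25 °C with a custom Agilent array that had been primer-extended with Cy5-dUTP and blocked with 2% BSA. After washing, the array was read on an Axon 4000B scanner. The binding signal is per-feature fluorescence intensity in arbitrary units.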
row,Sequence,binding signal
1,GCCTAATTAATCCATGATTAGCTTATGTGATGCTACATTACGGAGTCACCTAGTGCAG,36300 fluorescence intensity (a.u.)
2,GAATAATATGGACAAATTGATCTTTCTCTGTCCCTACTCACGGAGTCACCTAGTGCAG,10700 fluorescence intensity (a.u.)
3,AAGAAAATTATTTGCTGCTACTATTCTTCACCTACAGTTGCGGAGTCACCTAGTGCAG,3920 fluorescence intensity (a.u.)
4,TATTGATTTGATAAATTTAATTTAGTACTATAAATATTATCGGAGTCACCTAGTGCAG,16900 fluorescence intensity (a.u.)
5,GTGATAATTTAGTTACTAAACATGTTGTGAAACTTTATCTCGGAGTCACCTAGTGCAG,3720 fluorescence intensity (a.u.)
6,TCATTTTGAATAAATTAATTTTGAAGTTGATCTGTTGTATCGGAGTCACCTAGTGCAG,15500 fluorescence intensity (a.u.)
7,TATTTAATTTGTTGAACTAGCCATCTGACCCGTGCGTATCCGGAGTCACCTAGTGCAG,30400 fluorescence intensity (a.u.)
8,ATGTTAAATTATACTACATCCGTTTCAGGTTATAAGATGTCGGAGTCACCTAGTGCAG,6910 fluorescence intensity (a.u.)
9,CTATTAATTGTAGGTTATAAATGCCCATCTTAAACCCTGTCGGAGTCACCTAGTGCAG,29600 fluorescence intensity (a.u.)
10,CTATCAACAATCAATTTGATGTATGTGCTCTTCTTTGTGCCGGAGTCACCTAGTGCAG,11200 fluorescence intensity (a.u.)
11,CAGTTCAAATAAATTTAGATTGGGTTATTTAAAGGCTAAGCGGAGTCACCTAGTGCAG,11100 fluorescence intensity (a.u.)
12,GACTAATGAGGTACTTGTCAATTGTCATCAGATGTGCCAGCGGAGTCACCTAGTGCAG,5410 fluorescence intensity (a.u.)
13,TCGGTATTGTGATTGAGGGGTAAGAGTAAGTTTCGGCCACCGGAGTCACCTAGTGCAG,18700 fluorescence intensity (a.u.)
14,ACGTAATTAAGAGTGAATTAATTCTACATGTATCTATCAACGGAGTCACCTAGTGCAG,24500 fluorescence intensity (a.u.)
15,ATTAATTTCACCATGAATAATGTGGATAATCATATCTTTCCGGAGTCACCTAGTGCAG,7960 fluorescence intensity (a.u.)
16,AATTTATCTCTAATTTTATATAACTATTTAGACGATGAAGCGGAGTCACCTAGTGCAG,4720 fluorescence intensity (a.u.)
17,TCTTGACACCGGCCGGATTGATCTATCATCCATCCATCGACGGAGTCACCTAGTGCAG,12300 fluorescence intensity (a.u.)
18,TTCTGTAATTGATAGGTTAAGGGCCCCTTTGAATCACAGGCGGAGTCACCTAGTGCAG,50400 fluorescence intensity (a.u.)
19,ACTATTCTATTATGATGATTAGGCTGTTATTGGTTGAAGTCGGAGTCACCTAGTGCAG,7170 fluorescence intensity (a.u.)
20,TAGTTAATTGTAGATATACATCGTATCATTAATACCTAATCGGAGTCACCTAGTGCAG,20500 fluorescence intensity (a.u.)
21,CAAATGATTGGATACCATCCTCAGAGACGGTATGGCAGTACGGAGTCACCTAGTGCAG,50000 fluorescence intensity (a.u.)

row,Sequence,binding signal
1,AACTAACTAGGAGTATTAATTAATTCCTTCCACTAATCACCGGAGTCACCTAGTGCAG,11800 fluorescence intensity (a.u.)
2,AACGGAATTAAACTAACCGTTGACTAGCGGCAATGGTATGCGGAGTCACCTAGTGCAG,3820 fluorescence intensity (a.u.)
3,CCATAATTGAGGGCTCCAAGTAGACTTCTTACTTTCGAAACGGAGTCACCTAGTGCAG,32400 fluorescence intensity (a.u.)
4,CGTCTTGATTTGGTGGAGCATGATAGCGTATTACTAGTTTCGGAGTCACCTAGTGCAG,14800 fluorescence intensity (a.u.)
5,TCAAAATTGATAAGTGTTAATTAGACATAAAATATATTCACGGAGTCACCTAGTGCAG,24800 fluorescence intensity (a.u.)
6,TTCTCAATTGAACCTCTTTTCTGTTGTCGATTAATATAAACGGAGTCACCTAGTGCAG,3280 fluorescence intensity (a.u.)
7,CTCCGAGATTGATCTTGCCCGCTCTCATGTGCGAAAGCTTCGGAGTCACCTAGTGCAG,21400 fluorescence intensity (a.u.)
8,GTTAATGGATGTAGATATATATATCTATCTAGATTTATTACGGAGTCACCTAGTGCAG,7040 fluorescence intensity (a.u.)
9,CGTAACTTCATTTACAAATCTTCCGATTAACCCATAAGCCCGGAGTCACCTAGTGCAG,5080 fluorescence intensity (a.u.)
10,CTCGCTACTGATAGATTTGGCCAATGGAGACGTTCCTGCTCGGAGTCACCTAGTGCAG,10400 fluorescence intensity (a.u.)
11,TCTTAATTTAGATGAAGTTAAAACTGTTTAGCTGAGCTCTCGGAGTCACCTAGTGCAG,29000 fluorescence intensity (a.u.)
12,ATTATTGACAATTGTCTAAGTATGCTTCTAAAATTATTTCCGGAGTCACCTAGTGCAG,11000 fluorescence intensity (a.u.)
13,TTGATTTGGTTGATTGCCTCCTTCGTTCGTCCACGCTCAACGGAGTCACCTAGTGCAG,57100 fluorescence intensity (a.u.)
14,ATTTCAAATTATTTAATTAGAGTCAGATGGAGAAATGACCCGGAGTCACCTAGTGCAG,17100 fluorescence intensity (a.u.)
15,TTCGATTTAACTGTTCTATTACTGAGGTACTCTTCGATTTCGGAGTCACCTAGTGCAG,6940 fluorescence intensity (a.u.)
16,AATGGAAGCCTATTAATTGGTAATACGTAATCTAGAATTGCGGAGTCACCTAGTGCAG,8540 fluorescence intensity (a.u.)
17,ATGCCAAATTGCCAATGGTGATGTGATCATGTGAAAGACACGGAGTCACCTAGTGCAG,5420 fluorescence intensity (a.u.)
18,GTTACACTGCAATTATATCGTATTTACATTTATAACTGGGCGGAGTCACCTAGTGCAG,3200 fluorescence intensity (a.u.)
19,AGTGATGGATAGAGAAAGAAGATGGAACTGACATGCGGGTCGGAGTCACCTAGTGCAG,12800 fluorescence intensity (a.u.)
20,AATTAAATTAACTTCTGTGCGTGTGTCTGTGGGGCCCTTGCGGAGTCACCTAGTGCAG,18100 fluorescence intensity (a.u.)
21,ATTTCAAAATTTGTTATAAATTTTGCAGTTATTTCATGCACGGAGTCACCTAGTGCAG,7840 fluorescence intensity (a.u.)
